One assay deals with Molt-4 cells. Kind of assay: cells. To be noted: Homo sapiens, MOLT-4, read-out: Cellular activity (IC50, nM) Molt-4.
The test system of another assay is RS4;11 cells. Kind of assay: cells. As to conditions: Homo sapiens.
Setting [1] is: RS4-11, 48 h, read-out: Cellular activity (IC50, nM) RS4, 11.
The mark [2] stands for this setting: RS4-11, 48 h, read-out: Cellular activity (IC50, nM) RS4;11.

A word on the IC50: it is the point on the concentration scale where inhibition reaches its midpoint.

Read-outs that look alike come from different tables or passages of the source.

`O=C(NS(=O)(=O)c1ccc(NCC2CCOCC2)c([N+](=O)[O-])c1)c1ccc(-c2ccc(N3C(=O)CC3c3ccccc3)cc2)cc1Oc1cnc2[nH]ccc2c1` (centres unmarked) [Example A21, 3-((1H-pyrrolo[2,3-b]pyridin-5-yl)oxy)-N-((3-nitro-4-(((tetrahydro-2H-pyran-4-yl)methyl)amino)phenyl)sulfonyl)-4′-(2-oxo-4-phenylazetidin-1-yl)-[1,1′-biphenyl]-4-carboxamide]: the IC50 with Molt-4 cells is over 10000 nM; in the assay on RS4;11 cells (setting [1]) it was 6230 nM.

Consider `CN(C)C(=O)CN1CCC(c2ccccc2[C@H]2CCCN2c2ccc(-c3ccc(C(=O)NS(=O)(=O)c4ccc(NCC5CCOCC5)c([N+](=O)[O-])c4)c(Oc4cnc5[nH]ccc5c4)c3)cc2)CC1` [Example A104, (R)-3-((1H-pyrrolo[2,3-b]pyridin-5-yl)oxy)-4′-(2-(2-(1-(2-(dimethylamino)-2-oxoethyl)piperidin-4-yl)phenyl)pyrrolidin-1-yl)-N-((3-nitro-4-(((tetrahydro-2H-pyran-4-yl)methyl)amino)phenyl)sulfonyl)-[1,1′-biphenyl]-4-carboxamide], for which the IC50 in the assay on Molt-4 cells came out at 4610 nM; in the assay with RS4;11 cells (setting [2]), 16 nM.

Take `O=C(NS(=O)(=O)c1ccc(NCC2CCOCC2)c([N+](=O)[O-])c1)c1ccc(-c2ccc(N3C(=O)COCC3c3ccccc3C3CC3)cc2)cc1Oc1cnc2[nH]ccc2c1` (centres unmarked) [Example A153, 3-((1H-pyrrolo[2,3-b]pyridin-5-yl)oxy)-4′-(3-(2-cyclopropylphenyl)-5-oxomorpholino)-N-((3-nitro-4-(((tetrahydro-2H-pyran-4-yl)methyl)amino)phenyl)sulfonyl)-[1,1′-biphenyl]-4-carboxamide]: the half-maximal inhibitory concentration (IC50) in the assay on Molt-4 cells is over 10000 nM; in the assay with RS4;11 cells (setting [2]), 424 nM.

Take `CN1CCC(Oc2ccccc2C2CCCN2c2ccc(-c3ccc(C(=O)NS(=O)(=O)c4ccc(NCC5CCOCC5)c([N+](=O)[O-])c4)c(Oc4cnc5[nH]ccc5c4)c3)cc2)CC1` (centres unmarked) [Example A113, 3-((1H-pyrrolo[2,3-b]pyridin-5-yl)oxy)-4′-(2-(2-((1-methylpiperidin-4-yl)oxy)phenyl)pyrrolidin-1-yl)-N-((3-nitro-4-(((tetrahydro-2H-pyran-4-yl)methyl)amino)phenyl)sulfonyl)-[1,1′-biphenyl]-4-carboxamide]: the IC50 is 1190 nM in the assay on Molt-4 cells and 8.6 nM with RS4;11 cells (setting [2]).

In the case of `CN1CC=C(c2ccccc2[C@@H]2CCCN2c2ccc(-c3ccc(C(=O)NS(=O)(=O)c4ccc(NCC5CCOCC5)c([N+](=O)[O-])c4)c(Oc4cnc5[nH]ccc5c4)c3)cc2)CC1` [Example A68-S, (S)-3-((1H-pyrrolo[2,3-b]pyridin-5-yl)oxy)-4′-(2-(2-(1-methyl-1,2,3,6-tetrahydropyridin-4-yl)phenyl)pyrrolidin-1-yl)-N-((3-nitro-4-(((tetrahydro-2H-pyran-4-yl)methyl)amino)phenyl)sulfonyl)-[1,1′-biphenyl]-4-carboxamide], the half-maximal inhibitory concentration (IC50) was over 10000 nM in the assay on Molt-4 cells and 196 nM in the assay with RS4;11 cells (setting [2]).

As for `CN(C)CC1CCCN1c1ccccc1C1CCCN1c1ccc(-c2ccc(C(=O)NS(=O)(=O)c3ccc(NCC4CCOCC4)c([N+](=O)[O-])c3)c(Oc3cnc4[nH]ccc4c3)c2)cc1` (centres unmarked) [Example A137, 3-((1H-pyrrolo[2,3-b]pyridin-5-yl)oxy)-4′-(2-(2-(2-((dimethylamino)methyl)pyrrolidin-1-yl)phenyl)pyrrolidin-1-yl)-N-((3-nitro-4-(((tetrahydro-2H-pyran-4-yl)methyl)amino)phenyl)sulfonyl)-[1,1′-biphenyl]-4-carboxamide], the IC50 was determined as 3540 nM in the assay on Molt-4 cells and 10 nM in the assay with RS4;11 cells (setting [2]).

Take `C=C1CC(c2ccccc2C2CC2)N(c2ccc(-c3ccc(C(=O)NS(=O)(=O)c4ccc(NCC5CCOCC5)c([N+](=O)[O-])c4)c(Oc4cnc5[nH]ccc5c4)c3)cc2)C1` (centres unmarked) [Example A150, 3-((1H-pyrrolo[2,3-b]pyridin-5-yl)oxy)-4′-(2-(2-cyclopropylphenyl)-4-methylenepyrrolidin-1-yl)-N-((3-nitro-4-(((tetrahydro-2H-pyran-4-yl)methyl)amino)phenyl)sulfonyl)-[1,1′-biphenyl]-4-carboxamide]: the IC50 was 4110 nM with Molt-4 cells and 41 nM with RS4;11 cells (setting [2]).

With `CCC1(c2ccccc2)CCCN1c1ccc(-c2ccc(C(=O)NS(=O)(=O)c3ccc(NCC4CCOCC4)c([N+](=O)[O-])c3)c(Oc3cnc4[nH]ccc4c3)c2)cc1` (centres unmarked) [Example A55, 3-((1H-pyrrolo[2,3-b]pyridin-5-yl)oxy)-4′-(2-ethyl-2-phenylpyrrolidin-1-yl)-N-((3-nitro-4-(((tetrahydro-2H-pyran-4-yl)methyl)amino)phenyl)sulfonyl)-[1,1′-biphenyl]-4-carboxamide], the IC50 in the assay with Molt-4 cells worked out at 8030 nM; in the assay with RS4;11 cells (setting [1]) it was 215 nM.

Consider `O=C(NS(=O)(=O)c1ccc(NCC2CCOCC2)c([N+](=O)[O-])c1)c1ccc(-c2ccc(CN3CCCC3c3ccccc3Cl)cc2)cc1Oc1cnc2[nH]ccc2c1` (centres unmarked) [Example B2, 3-((1H-pyrrolo[2,3-b]pyridin-5-yl)oxy)-4′-((2-(2-chlorophenyl)pyrrolidin-1-yl)methyl)-N-((3-nitro-4-(((tetrahydro-2H-pyran-4-yl)methyl)amino)phenyl)sulfonyl)-[1,1′-biphenyl]-4-carboxamide], for which the IC50 in the assay with Molt-4 cells is 5520 nM; with RS4;11 cells (setting [1]) it was 339 nM; with RS4;11 cells (RS4-11, read-out: Cellular activity (IC50, nM)), 339 nM.

For the compound `CC(C)Cc1ccccc1C1CCCN1C1CC=C(c2ccc(C(=O)NS(=O)(=O)c3ccc(NCC4CCOCC4)c([N+](=O)[O-])c3)c(Oc3cnc4[nH]ccc4c3)c2)CC1` (centres unmarked) [Example C21, 3-((1H-pyrrolo[2,3-b]pyridin-5-yl)oxy)-4′-(2-(2-isobutylphenyl)pyrrolidin-1-yl)-N-((3-nitro-4-(((tetrahydro-2H-pyran-4-yl)methyl)amino)phenyl)sulfonyl)-2′,3′,4′,5′-tetrahydro-[1,1′-biphenyl]-4-carboxamide], the IC50 was 5440 nM in the assay with Molt-4 cells and 132 nM with RS4;11 cells (setting [1]).

For the compound `O=C(NS(=O)(=O)c1ccc(NCC2CCOCC2)c([N+](=O)[O-])c1)c1ccc(C2=CCC(N3CCCC3c3sccc3C3CC3)CC2)cc1Oc1cnc2[nH]ccc2c1` (centres unmarked) [Example C57, 3-((1H-pyrrolo[2,3-b]pyridin-5-yl)oxy)-4′-(2-(3-cyclopropylthiophen-2-yl)pyrrolidin-1-yl)-N-((3-nitro-4-(((tetrahydro-2H-pyran-4-yl)methyl)amino)phenyl)sulfonyl)-2′,3′,4′,5′-tetrahydro-[1,1′-biphenyl]-4-carboxamide], the IC50 in the assay on Molt-4 cells was over 10000 nM; in the assay on RS4;11 cells (setting [1]) it was 463 nM.

In the case of `CC(C)c1ccccc1C1CCCN1C1CC=C(c2ccc(C(=O)NS(=O)(=O)c3ccc(NCC4CCOCC4)c([N+](=O)[O-])c3)c(Oc3cnc4[nH]ccc4c3)c2)CC1` (centres unmarked) [Example C18, 3-((1H-pyrrolo[2,3-b]pyridin-5-yl)oxy)-4′-(2-(2-isopropylphenyl)pyrrolidin-1-yl)-N-((3-nitro-4-(((tetrahydro-2H-pyran-4-yl)methyl)amino)phenyl)sulfonyl)-2′,3′,4′,5′-tetrahydro-[1,1′-biphenyl]-4-carboxamide], the IC50 is 9820 nM in the assay on Molt-4 cells and 121 nM with RS4;11 cells (setting [1]).

For the compound `O=C(NS(=O)(=O)c1ccc(NCC2CCOCC2)c([N+](=O)[O-])c1)c1ccc(C2=CCC(N3CCCC3Cc3ccccc3)CC2)cc1Oc1cnc2[nH]ccc2c1` (centres unmarked) [Example C6, 3-((1H-pyrrolo[2,3-b]pyridin-5-yl)oxy)-4′-(2-benzylpyrrolidin-1-yl)-N-((3-nitro-4-(((tetrahydro-2H-pyran-4-yl)methyl)amino)phenyl)sulfonyl)-2′,3′,4′,5′-tetrahydro-[1,1′-biphenyl]-4-carboxamide], the IC50 was over 10000 nM with Molt-4 cells and 1300 nM in the assay with RS4;11 cells (setting [1]).

As for `COc1ccccc1C1CCCN1c1ccc(-c2ccc(C(=O)NS(=O)(=O)c3ccc(NCC4CCOCC4)c([N+](=O)[O-])c3)c(Oc3cnc4[nH]ccc4c3)c2)cc1` (centres unmarked) [Example A18, 3-((1H-pyrrolo[2,3-b]pyridin-5-yl)oxy)-4′-(2-(2-methoxyphenyl)pyrrolidin-1-yl)-N-((3-nitro-4-(((tetrahydro-2H-pyran-4-yl)methyl)amino)phenyl)sulfonyl)-[1,1′-biphenyl]-4-carboxamide], the IC50 with Molt-4 cells is over 10000 nM; in the assay with RS4;11 cells (setting [1]) it was 73 nM.

Take `CNCC(=O)N1CCC(c2ccccc2[C@H]2CCCN2c2ccc(-c3ccc(C(=O)NS(=O)(=O)c4ccc(NC[C@H]5CC[C@](C)(O)CC5)c([N+](=O)[O-])c4)c(Oc4cnc5[nH]ccc5c4)c3)cc2)CC1` [Example G125, 3-((1H-pyrrolo[2,3-b]pyridin-5-yl)oxy)-N-((4-((((1r,4r)-4-hydroxy-4-methylcyclohexyl)methyl)amino)-3-nitrophenyl)sulfonyl)-4′-((R)-2-(2-(1-(methylglycyl)piperidin-4-yl)phenyl)pyrrolidin-1-yl)-[1,1′-biphenyl]-4-carboxamide]: the IC50 is over 10000 nM in the assay on Molt-4 cells and 33 nM in the assay on RS4;11 cells (setting [2]).

On to `O=C(NS(=O)(=O)c1ccc(NC[C@@H]2COCCO2)c([N+](=O)[O-])c1)c1ccc(N2CC3(CC(N4CCC[C@H]4c4ccccc4C4CC4)C3)C2)cc1Oc1cnc2[nH]ccc2c1` [Example F108, N-((4-((((R)-1,4-dioxan-2-yl)methyl)amino)-3-nitrophenyl)sulfonyl)-2-((1H-pyrrolo[2,3-b]pyridin-5-yl)oxy)-4-(6-((S)-2-(2-cyclopropylphenyl)pyrrolidin-1-yl)-2-azaspiro[3.3]heptan-2-yl)benzamide], for which the results for the IC50 in the assay on Molt-4 cells and in the assay with RS4;11 cells (setting [2]) were 1190 nM and 1.1 nM, respectively.

On to `O=C(NS(=O)(=O)c1ccc(NC[C@@H]2CN(C3COC3)CCO2)c([N+](=O)[O-])c1)c1ccc(C2=CCC(N3CCCC3c3ccccc3C3CC3)CC2)cc1Oc1cnc2[nH]ccc2c1` (stereo partly drawn) [Example G112, 3-((1H-pyrrolo[2,3-b]pyridin-5-yl)oxy)-4′-((S)-2-(2-cyclopropylphenyl)pyrrolidin-1-yl)-N-((3-nitro-4-((((R)-4-(oxetan-3-yl)morpholin-2-yl)methyl)amino)phenyl)sulfonyl)-2′,3′,4′,5′-tetrahydro-[1,1′-biphenyl]-4-carboxamide], for which the values for the IC50 in the assay with Molt-4 cells and with RS4;11 cells (setting [1]) were 4280 nM and 12 nM, respectively.
